Results on 34 variants are retold here after the RNAGym collection of RNA variant scans (doi:10.1093/nar/gkz1192).

Read counts are not given, so values of variants with three or more changes are uncertain.

Sequences and labels used below:
B1: CPEB3 Ribozyme (parent)
chain: UAACAGGGGGCCACAGCAGAAGCGUUCACGUCGCAGCCCCUGUCAGAUUCUGGUGAAUCUGCGAAUUCUGCUGUAUAUCUC

Variants of B1 are the subject of the series. The series can be described thus: self-cleavage, relative activity (ratio to wild type); higher = more cleavage; in vitro, sequencing. The procedure, abridged:
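Barcoded CPEB3 ribozyme mutants, produced by rounds of error-prone PCR, self-cleaved while being transcribed with T7 RNA polymerase for 5 hours at 37°C and during a subsequent 15 min DNase I step before EDTA was added. Sequencing of template-switched cDNA on Illumina gave cleaved and total reads, and DNA sequencing assigned barcodes to variants. Each variant's relative activity is its cleaved/total read fraction divided by the unmutated ribozyme's fraction, averaged across three batches. A variant needed a minimum of 5 reads.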
For UAACAGGGGGCCACAGCAGAGGCGUUCACGUCACAGCCCCAGUCAGAUUCCGGUGAAUCUGCGAAUUCUGCAGUAUAUCUC, the self-cleavage was 0.06.
Then UAACAGGGGGCCACAGCAGAGGCGUUCACGUCGCAGCCCCUGUCAGAUUCUGGUGGAUCUGCGGAUUCUGCUGUAUACCUC, with 0.18; and UAACAGGGGGCCACAGCAGAGGCGUUCACGUCGCAGCCCCUGUCAGAUUCUGGUGAAUCUGAGGAUCCUGCUGCAUAUCUC, with 0.12.
To UAACAGGGGGCCACAGCAGAGGCGUUCACGUUGCAGCCCCUGUCAGAUUCAGGUGAAUCUGCGAAUCCUGCUGUAUAUCUC belongs 0.1; to UAACAGGGGGCCACAGCAGAGGUGUUCACGUCGCAGCCCCUGUCAGAUCCUGGUGAGUCUGCGAAUUCCGCUGUAUACCUC, 0.05.
For UAACAGGGGGCCACAGCAGAGGCGUUCACGUCGCAGUCCCUGUCAGAUUCUGGCGAAUCUGCGUAUUCUGCUGUAUAUCUC, the self-cleavage came out at 0.1.
Then UAACAGGGGGCCACAGCAGAGGCGUUCACGUCACAGCCCCUGUCAGAUUCUGGUGAAUCCGCGAAUUCUGCUGUAUAUCUC, with 0.12.
To UAACAGGGGGCCACAGCAGAGGCGUUCACGUCGCAGCACCUGUCAGAUUCUGGAGUAUCUGCGAAUUCUGCUGUAUAUCUC belongs 0.22.
To UAACAGGGGGCCACAGCAGAGGCGUUCACGUAGCAGCCCCUGUCAGAUUCCGGUGAAUCUGCGAAUUCUGCUGUAUAUCUC belongs 0.11; to UAACAGGGGGCCACAGCAGAGGCGUUCACGUCCCGGCCCCUGUCAGAUUAUGGUGAAUCUGCGAAUUCUGCUGUAUACCUC, 0.06.
With UAACAGGGGGCCACAGCAGAGGCGUUCACGUUGCAGCCCCUGUCAGAUUCAGGUGAAUCUGCGAAUUCUGCUGUAUAUCUC, the self-cleavage turned out to be 0.26.
On to UAACAGGGGGCCACAGCAGAGGCGUUUACGUCGCAGCCCCUGCCAGAUUCUAGUGAGUCUGCGAAUUCUGCUGUAUAUCUC, for which the self-cleavage was 0.09.
With UAACAGGGGGCCACAGCAGAGGCGUUCACGUCGGAGCCCCUGUCAGAUUCUGGUGAAUCUGCGAAUUCUGCAGUAUAUCUC, the self-cleavage amounted to 0.12.
In the case of UAACAGGGGGCCACAGCAGAGGCGUUUACGACGCAGCCCCUGUCAGAUUCUGGUGUAUCUGCGAAUCCUGCUGUAAUUCUC, the self-cleavage was 0.06.
With UAACAGGGGGCCACAGCAGAGGCAUUCACGUCGCAGCCCCUGUCAGAUUCUGGUGAAUCUGCGAGUUCUGCUGUAUAUCUC, the self-cleavage is 0.04.
UAACAGGGGGCCACAGCAGAGGCGUUCAUGUCGCAGCCCCUGUCAGAUUCUGGUGAAUCCGCGAAUUCUGCUGUAUAUCUC: the self-cleavage was 0.19.
Then UAACAGGGGGCCACAGCAGAGGCGUUCACGUCGCAGGCCAUGUCAGAUUCUGGUGAUUCUGCAAAUUCUGCCGUAUAUCUC, with 0.05; and UAACAGGGGGCCACAGCAGAGGCGUUCACGUAGCAGCCCCUGUCAGAUUCUGGUGAAUCUGCGAAUUCUGCCGUAUAUCUC, with 0.26.
For the variant UAACAGGGGGCCACAGCAGAGCCGUUCACGACCCAGCCCCUGUCAGAUUCUGGUCAAUCUGCGAAUUCUGCUGAAUAACUC, the self-cleavage was found to be 0.04.
Then UAACAGGGGGCCACAGCAGAGGGGUUCACGUCGCAGCCCCUGCCAGAUUCUGGUGAAUCUGCGAAUUCUGCUGUAUAUCUC, with 0.1; and UAACAGGGGGCCACAGCAGAGGCCUUCACGUCACAGCCCCUGUCAGAUUCUGGUGAAUCUGCGAAUUCUGCUGUGUAUCUC, with 0.05; and UAACAGGGGGCCACAGCAGAGGAGUUCACGUCGCAGCCCCUGUCAGACUCUGGUGAAUCUGCGAGUACUGCUGCAUACCUC, with 0.05.
As to UAACAGGGGGCCACAGCAGAGGUGUUCACGUCGGAGCCCCUGUCAGAUUCUGGUGAAUCUGCGAAUUCUGCUGUAUAUCUC, the self-cleavage was determined as 0.29.
Then UAACAGGGGGCCACAGCAGAGGCGUUCACGUCGGAGCCCCUGUCAGGUUCUGGUGAAUCUGCGAAUUCUGCUGUAUAUCUC, with 0.18; and UAACAGGGGGCCACAGCAGAGGCGUUCACGUCACAGCCCCUGUCAGAUUCUGGUGAAUCUGCGAAUUCCGCUGCAUAUCUC, with 0.26.
Consider UAACAGGGGGCCACAGCAGAGGCAUUCACGUCGCAGCCCCUGCCAGAUACAGGUGAAUCUGCGAAUUCUGCCGCAUAUCUC, for which the self-cleavage stood at 0.04.
Then UAACAGGGGGCCACAGCAGAGGCGUUCACGUCGCAGCCCCUGUCAGAUUCUGGUGAAUCUGCGUAUUCUGCUGCAUAUCUC, with 0.1; and UAACAGGGGGCCACAGCAGAGGCGUUCAUGUCGCAGCCCCUGUCAGACUCCGGUGAAUCUGCGAAUUCUGCUGUAUACCCC, with 0.08; and UAACAGGGGGCCACAGCAGAGUCGUUCACGUCGCAGCCCCUGUCAGAUCCUGGUGAGUCUGCGAAUCCAGCUGUAUGUCUC, with 0.04.
Then UAACAGGGGGCCACAGCAGAGGCGUUCACAUCGCAGCCCCUGUCAGAUUCCGGUGGACCUGCGAAUUCUGCUGUAUAUCUC, with 0.14; and UAACAGGGGGCCACAGCAGAGGCGUUCACGUCGCAGCCCCUGUCAGUUUCUGGUGAACCUGCGAAUUCUGCUGUAUAUCCC, with 0.32; and UAACAGGGGGCCACAGCAGAGGCGUUCACGUCGCAGCCCCUGUCAGGAUCUGGUGAAUCUGCGGAUUCUGCUGUAAGUCUC, with 0.08.
To UAACAGGGGGCCACAGCAGAGGCGUUCACGUCGCAGCCCCUGUCUGAUUCUGGUGAAUCUGCGAAUUCUGCUGAAUAUCUC belongs 0.59; to UAACAGGGGGCCACAGCAGAGGCGUUCACGUCGCAGCCCCUGUCAGGUUCUGGUGAAUCUGCGAAUUCUGCUGUAUUUCUC, 0.61.
